{"source": "paper PMC12136788", "binders": {"B1": {"name": "chr1:163117127:163117128:-_ENSG00000143248_ENST00000313961|hu_mus|hu_hu_hu_mus_False|48_68 (ssRNA)", "RNA": "GGGAGUUCUACAGUCCGACGAUCUGCUACAAAGGAUGUAACUCAACUCACAGGGCAACUUUUGGAAGCCUGGCUAAAUGACUACUUGAUUAACUCCUUAUAAAAUUCAGAGCGCACAAAGCGGGGCAGAGAAUCCUUCUCCAUCAACAGAGGAUUGAGCAUCA"}, "B2": {"name": "chr1:185277986:185277987:-_ENSG00000116679_ENST00000392007|hu_hu|FALSE|FALSE (ssRNA)", "RNA": "GGGAGUUCUACAGUCCGACGAUCCCUGCUUUACUCGAUCCAUCUUCAGCUUUUUUGCUGCAGAAUAAACAUCUUUUACCAAUUCCUUAUCUGCUUUCAACUGAGCAGUGUAGGCAUAAUUCAACAAGACUUCAACAGCUUCUGCAACAGAGGAUUGAGCAUCA"}, "B3": {"name": "chr1:163122426:163122427:-_ENSG00000143248_ENST00000313961|hu_mus|FALSE|FALSE (ssRNA)", "RNA": "GGGAGUUCUACAGUCCGACGAUCUUCAUAAAUUUGCUUUGCCUUCUCCGCCAUUUUGAUGGGGGACUUGAUCUUCUUGUAAUUCUCACAGGCAACCCAGAACUCAAGGUUUUCCUCACUGAAUUCAGACUUCAGGAAACUUUUCAACAGAGGAUUGAGCAUCA"}, "B4": {"name": "chr3:176767854:176767855:-_ENSG00000177565_ENST00000430069|hu_hu|hu_hu_hu_mus_False|18_68 (ssRNA)", "RNA": "GGGAGUUCUACAGUCCGACGAUCGACAUCCUUGUUACUGGGCACGUCCUGCCCUCCUUCCCGUAUGCAAUGUCUAAGCACGAGCUGCGUAGGGCCACUCGUGCUGUUCUCACUGAGAUUCCAUAUUCUUGCCGUGGAGUCUCCCAACAGAGGAUUGAGCAUCA"}, "B5": {"name": "6862929_6863049_1259_3pUTR_ENSG00000170871_ENST00000425103|human|control|control (ssRNA)", "RNA": "GGGAGUUCUACAGUCCGACGAUCUAACAUACUUCAUGGAUGCUUUUAAUUCUCCCUGAUUCCCACUGGAACUUGAGCCUGCUUCACUGGAGCCAGAAGACCACGAGCGAGGGCGAAUCUUUCCUUCAGGUUUAUGUCGGAUUUCAACAGAGGAUUGAGCAUCA"}, "B6": {"name": "chr14:59836542:59836543:+_ENSMUSG00000035469_ENSMUST00000043227|mus_mus|motif|central (ssRNA)", "RNA": "GGGAGUUCUACAGUCCGACGAUCCCAAGCAAAUAACUCUCCAUCAGCUGCUAAAGCCAUCGAAUGAUGUGAACCACAAGCGGCUUCAAUCACCUGCUUGAUCAAGAGAUUAGUACAGACUUGGACAGGAGCAAUGCCUUGGUUCAACAGAGGAUUGAGCAUCA"}, "B7": {"name": "chr10:33190432:33190433:-_ENSG00000150093_ENST00000302278|hu_mus|hu_hu_hu_mus_True|8_88 (ssRNA)", "RNA": "GGGAGUUCUACAGUCCGACGAUCUACAUUUUCCAAACCUGCAUGUGAGUAAAACCAUGGCCACAGAGCCCCAAAACUACCCUACUGUGACUAAGAUGCUGCUGCUGUGAGCUUGGUGUUGCAAAAUUUUGCACGGGAGGAUUCCAACAGAGGAUUGAGCAUCA"}, "B8": {"name": "chr17:40359653:40359654:-_ENSG00000173757_ENST00000293328|hu_hu|FALSE|FALSE (ssRNA)", "RNA": "GGGAGUUCUACAGUCCGACGAUCUGGUGUGUAGUAUUUGGAGUAUACUUCAUCUUUUGGCCGAUCAGGAAACACGUAGAUAAGGUAAUUCAAGUCUCCCAAGCGGUCGGCUAGGGACCGAAUGGAGAAGUCUCUGGUGGUAAACAACAGAGGAUUGAGCAUCA"}, "B9": {"name": "chr1:60041781:60041782:+_ENSMUSG00000041040_ENSMUST00000036540|mus_hu|mus_mus_mus_hu_False|8_18 (ssRNA)", "RNA": "GGGAGUUCUACAGUCCGACGAUCAAGUUUACAAUAGUAAAGUAAAUGCAGUAGUGGCAAAUUUUCUUUUAUUUUCCUUCACAAAAGAAAAUCUUUAUAACCCAGUCCUAGUCUUGGCAGAGAAAGCUCUCCAUGGGUCUGACUCAACAGAGGAUUGAGCAUCA"}, "B10": {"name": "chr17:49118984:49118985:-_ENSG00000008294_ENST00000510283|hu_mus|motif|central (ssRNA)", "RNA": "GGGAGUUCUACAGUCCGACGAUCUCCUUUCUGAGUGUCAGGUGUAAGCAAUCCAUCUCCAGCAGGUAGAGGGAAAAUCCCGGAUGAUAUAGGACGUUCUUUUCUGAGUAUCCUUGGUAGGUUCUGCGUCAGCGCUGGCACCCCCAACAGAGGAUUGAGCAUCA"}, "B11": {"name": "chr4:120564514:120564515:+_ENSMUSG00000032890_ENSMUST00000071093|mus_hu|FALSE|FALSE (ssRNA)", "RNA": "GGGAGUUCUACAGUCCGACGAUCAGACCACCAGGAGCAGGCACAGGUGAAGAACACACAGGCUCUGCCCCAGGCCAGGACCAGGCAGCACCGACCAGUGGCCGCAUGCCCCACCUCCAUCCCUGGAGACUCCUCAGGGUGAGUCAACAGAGGAUUGAGCAUCA"}, "B12": {"name": "chr7:151048522:151048523:+_ENSG00000013374_ENST00000566856|hu_mus|hu_hu_hu_mus_True|18_68 (ssRNA)", "RNA": "GGGAGUUCUACAGUCCGACGAUCCUGUUUCUUAUUUAUUACGAUCUUGAUGUAAUUUUCUUGAAAUCCAAAGGUUUCAGCUAUUUGACACCUCAGGUCUCUACCAGUGACAUGCAAUCGGGUCUCCAACAAGCUUUUCUUAUCCAACAGAGGAUUGAGCAUCA"}, "B13": {"name": "chr9:14812383:14812384:-_ENSMUSG00000031934_ENSMUST00000164273|mus_mus|mus_mus_mus_hu_True|28_38 (ssRNA)", "RNA": "GGGAGUUCUACAGUCCGACGAUCAUAGCCCAGGUAGAUACACGCUAACAGUAUAAUGAUGAGUGUCAGCAGGCGGCAGCUAAUGUACUUGAUGAUUAAAUGACUAGAGUUCUUUUUUGUCUUCAAGUACUGCUCCACAAUUGGCAACAGAGGAUUGAGCAUCA"}, "B14": {"name": "chr14:66974463:66974464:+_ENSMUSG00000022044_ENSMUST00000074523|mus_mus|motif|central (ssRNA)", "RNA": "GGGAGUUCUACAGUCCGACGAUCUUGUAGGAUGAUUUAUUCAGGGGAUCAGACAAGAAGCAAGAGCAGAACAGAGACACGGGUGGGAGUUCCUUCAUCUUCUCCUUAUAGGCUGCAAGAGUCAUGUUGGCUGGAAUCUGGUGGCAACAGAGGAUUGAGCAUCA"}}, "note": "Some of the results follow.", "data": [{"target": "T1, UNK ZnF1-3 (human, UniProt Q9C0B0 31-174)", "T1 sequence": "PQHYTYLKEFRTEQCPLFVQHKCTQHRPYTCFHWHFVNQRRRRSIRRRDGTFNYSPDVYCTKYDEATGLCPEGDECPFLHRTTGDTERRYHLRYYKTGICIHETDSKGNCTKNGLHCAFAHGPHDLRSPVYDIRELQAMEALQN", "experiment": "nsRBNS (natural sequence RNA bind-n-seq); RBNS binding buffer (assumed for nsRBNS): 25 mM Tris pH 7.5, 150 mM KCl, 3 mM MgCl2, 0.01% Triton X-100, 500 ug/ml BSA, 20 U/ml SUPERase-In, 4 C; UNK is unkempt and MSI1 is Musashi-1; names of the RNAs are library labels; protein concentration not given here; high values mean tight binding", "units": {"binding signal": "enrichment R"}, "values": [{"binder": "B1", "binding signal": 1.12}, {"binder": "B2", "binding signal": 1.21}, {"binder": "B3", "binding signal": 0.773}, {"binder": "B4", "binding signal": 0.383}, {"binder": "B5", "binding signal": 0.608}, {"binder": "B6", "binding signal": 0.913}, {"binder": "B7", "binding signal": 1.16}, {"binder": "B8", "binding signal": 1.13}, {"binder": "B9", "binding signal": 0.736}, {"binder": "B10", "binding signal": 0.803}, {"binder": "B11", "binding signal": 1.32}, {"binder": "B12", "binding signal": 0.591}, {"binder": "B13", "binding signal": 1.25}, {"binder": "B14", "binding signal": 1.8}]}]}
